# Reference: PubChem BioAssay AID686979 (National Center for Advancing Translational Sciences (NCATS), 2013)
# About 50,000 (12%) of roughly 420,000 compounds were called active. Inconclusive means that the source gave no clear call. Such entries were picked first, then a sample of the others. The call rests on the fitted dose curve; in most records, active means well fitted inhibition curve with a large enough effect; inconclusive means small, poorly fitted or top-dose-only effect; inactive means flat fitted curve, though single readings scatter. No potency is given beside an inconclusive call; the fits are too rough.
# Assay: qHTS for Inhibitors of human tyrosyl-DNA phosphodiesterase 1 (TDP1): qHTS in cells in presence of CPT; further: nearly all actives have a fitted effect of over 55% in size
# Conditions: chicken DT40 Tdp1-/-;hTDP1 cells + 20 nM CPT, ATP luminescence, 48 h; activity change, negative = growth inhibition: at 46.2 µM (top of the series) unless noted
# Summary of the method: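 Chicken DT40 Tdp1-/- cells complemented with human TDP1, 400 cells/well, exposed to compounds plus 20 nM camptothecin for at least 48 h at 37 C; viability read as ATP content by CellTiter-Glo luminescence.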
# On the % scale 0 is the no-effect control and ±100 the full control effect; potency means the concentration at half of the fitted maximal effect; tags describe the fitted curve by direction and shape.
Structure (SMILES),Potency,"activity change, negative = growth inhibition"
Cc1cc(C(=O)COC(=O)CC2Sc3ccccc3NC2=O)c(C)n1-c1cccc(C(F)(F)F)c1 (configuration not stated),"inconclusive [inhibitor, single point]",–
COc1cc2[nH]c(=S)n(Cc3ccccc3)c(=O)c2cc1OC,"inconclusive [inhibitor, single point]",–
O=C(CN1C(=O)C(=O)N(Cc2ccco2)C1=O)NC1CCCCC1,–,inactive: 4.69%
O=c1[nH]c(SCc2ccc(Cl)cc2)nc2ccsc12,"inconclusive [inhibitor, single point]",–
O=C(c1ccco1)N1CCC(c2nc3c(nnn3Cc3ccccc3Cl)c(=O)[nH]2)CC1,"inconclusive [inhibitor, single point]",–
COc1ccc(OC)c(-c2csc(NC(=O)COC(=O)C3(C)CC3(Cl)Cl)n2)c1 (configuration not stated),"inconclusive [inhibitor, partial curve]",–
C#CCCc1cscc1/C=[N+](\[O-])c1ccc(C(=O)OCC)cc1,active: 23.1 µM,–
CC(=O)Nc1ccc(NC(=O)C(C)OC(=O)C2CCN(S(=O)(=O)c3cccs3)CC2)cc1 (configuration not stated),–,inactive: -13.8%
CC1=C(C(=O)OCc2ccc3c(c2)OCO3)C(c2cccc([N+](=O)[O-])c2)NC(=O)N1 (configuration not stated),"inconclusive [inhibitor, full curve]",–
CC(C)CCN(C(=O)CNC(=O)c1ccco1)C(C(=O)NC1CCCCC1)c1cccnc1 (configuration not stated),–,inactive: 3.09%
Cc1nc(SCC(=O)Nc2nc3ccccc3s2)n[nH]1,"inconclusive [inhibitor, single point]",–
CCOC(=O)C1=C(C)N(C[C@@H]2CC[C@@H](Cc3ccc(-c4ccccc4)cc3)O2)C(=O)NC1c1cccc2ccccc12 (some centres not stated),"inconclusive [inhibitor, single point]",–
CCc1nc2c(OCc3cc(Cl)cc(Cl)c3)cccn2c1N(C)C(=O)CC(C)C,active: 25.9 µM,–
Fc1ccccc1NC(=S)NC1CCCC1,"inconclusive [inhibitor, single point]",–
COc1ccc(F)cc1COc1nc(C)nc2ccccc12,"inconclusive [inhibitor, single point]",–
COc1ccc(C2=NS(=O)(=O)N(C)C(C(=O)N3CCCCC3C)=C2)cc1 (configuration not stated),"inconclusive [inhibitor, single point]",–
Cc1cc(C(C)(C)C)ccc1OCCCCN1CCCC1,"inconclusive [inhibitor, partial curve, poor fit]",–
Cc1ccc(-c2ccc(=O)n(CCC(=O)NCc3ccccn3)n2)cc1,"inconclusive [inhibitor, single point]",–
O=S(=O)(/N=C(/Sc1ccc(Cl)cc1)c1ccccc1)c1ccccc1,active: 10 µM,–
COc1ccccc1Nc1ncc(C(=O)N2CCN(Cc3ccc(OC)c(OC)c3OC)CC2)c2ccccc12,active: 18.4 µM,–
Cc1n[nH]c(=O)c2c(NC(=O)CSc3nc4ccccc4c(=O)n3CCCO)oc(C)c12,"inconclusive [inhibitor, single point]",–
COc1ccccc1-n1c(SCC(=O)N2CCCCC2)nnc1-c1ccccc1O,"inconclusive [inhibitor, single point]",–
CCCCNC(=O)Cn1ncc2c(C)n(Cc3cccc(Cl)c3)c(C)c2c1=O,active: 23.1 µM,–
COc1ccccc1-n1c(=O)[nH]c2c(C(N)=O)nc(CC(C)C)nc21,–,inactive: -22.8%

Structure (SMILES),Potency,"activity change, negative = growth inhibition"
COc1ccc(C(=O)N(c2ccccn2)C2CCCCC2)c(OC)c1,–,inactive: 7.59%
CC(C)OC(=O)C(C#N)c1nc2ccccc2nc1N1CCCC1 (configuration not stated),–,inactive: -20.8%
CCN1C(=O)[C@H]2[C@@H](c3ccc(-c4cccc(Cl)c4)cc3)N[C@@](C)(C(=O)OC)[C@H]2C1=O,active: 16.4 µM,–
COc1ccc(C(=O)Nc2c3c(nn2-c2ccc(Cl)cc2)CS(=O)(=O)C3)cc1,–,inactive: -5.27%
Cc1nnc2c(SC(C)C)nc3ccccc3n12,"inconclusive [inhibitor, single point]",–
CCOc1ccc(N=c2scc(-c3ccc(OC)cc3)n2CCO)cc1,active: 9.2 µM,–
NC(=O)C(Cc1ccccc1)NC(=O)C12CC3CC(CC(C3)C1)C2 (configuration not stated),–,inactive: -17.9%
COc1cccc(-c2nc3nc(C)cc(C)n3c2NC2CCCC2)c1,"inconclusive [inhibitor, single point]",–
COc1ccc(-c2oc3ccc(N4CCOCC4)cc3c2/C=C/c2ccc(OC)c(OC)c2)cc1,"inconclusive [inhibitor, single point]",–
CCn1cc(C(=O)N2CCN(c3ccccc3)CC2)c(=O)c2cc(S(=O)(=O)N3CCCC3)ccc21,–,inactive: -14.2%
COc1ccc(CCNC(=O)Cn2c(=O)cnc3ccccc32)cc1,"inconclusive [inhibitor, single point]",–
O=C(CCSCc1ccccc1Cl)NC1CCCCC1,–,inactive: 8.73%
COc1ccc(C(=O)Nc2ccc(Cl)c(S(=O)(=O)N3CCOCC3)c2)cc1,"inconclusive [inhibitor, single point]",–
CCOC(=O)C1=CCN(S(=O)(=O)c2ccccc2Br)C1c1ccccc1 (configuration not stated),"inconclusive [inhibitor, single point]",–
CCn1c(C(=O)NCc2ccc(OC)cc2)cc2sc(Cl)cc21,"inconclusive [inhibitor, single point]",–
Cc1ccc(NC(=O)c2ccccc2CCc2ccccc2)c(C)c1,–,inactive: -10.2%
CCNC(=O)c1c(NC(=O)Cc2coc3cc(C)ccc23)sc2c1CCCC2,active: 11.6 µM,–
O=C1NCCCC1C(=O)N/N=C/c1cc([N+](=O)[O-])ccc1O (configuration not stated),–,inactive: -21.6%
O=C(CSc1nnc(-c2ccccc2)o1)c1nnc(-c2ccccc2)o1,–,inactive: -21%
CN(C)/C=C/C(=O)c1cnc(-c2ccccc2Cl)s1,"inconclusive [inhibitor, single point]",–
CCc1ccc(-c2cc(C)no2)cc1S(=O)(=O)NCCN1CCC(C)CC1,"inconclusive [inhibitor, single point]",–
COc1ccc(OCCNC(=O)c2cccc(Oc3ccc(C(F)(F)F)cc3[N+](=O)[O-])c2)cc1,"inconclusive [inhibitor, partial curve]",–
CCN(CC(=O)Nc1cccc(OC)c1)CC(=O)Nc1cccc2ccccc12,"inconclusive [inhibitor, single point]",–
COc1ccc(NC(=S)N2CCC(Cc3ccccc3)CC2)cc1OC,"inconclusive [inhibitor, single point]",–

Structure (SMILES),Potency,"activity change, negative = growth inhibition"
CC(Oc1ccc(Cl)cc1Cl)C(=O)Nc1ccncc1 (configuration not stated),active: 20.6 µM,–
CSc1nc(Cc2ccc(Cl)cc2)nc2ccccc12,"inconclusive [inhibitor, partial curve]",–
Cc1ccc(Nc2ncnc3onc(C)c23)cc1Cl,"inconclusive [inhibitor, partial curve]",–
COc1ccc(/C(C)=N/Nc2nc3ccccc3nc2C)cc1,"inconclusive [inhibitor, single point]",–
CC(=O)c1cccc(-c2ccnc3c2CC(C(=O)Nc2ccc(Cl)cc2)O3)c1 (configuration not stated),"inconclusive [inhibitor, single point]",–
Cc1cc(NC(=O)COc2ccc(Cl)cc2Cl)n(-c2ccccc2)n1,"inconclusive [inhibitor, single point]",–
COc1cc(C(=O)Nc2cc(Cl)ccc2C)c(-n2cnnn2)cc1OC,–,inconclusive: -28.2% [inhibitor]
S=c1[nH]nc2nnc3ccccc3n12,"inconclusive [inhibitor, single point]",–
CCOc1cc(NC(=S)NCCCN2CCOCC2)c(OCC)cc1NC(=O)c1ccco1,–,inactive: -4.28%
COc1ccc(NC(=O)CN2C(=O)NC3(CCCCCC3)C2=O)cc1Cl,"inconclusive [inhibitor, full curve, poor fit]",–
COc1cc(/C=C/C(=O)OC(C)C(=O)Nc2c(C)n(C)n(-c3ccccc3)c2=O)ccc1O (configuration not stated),–,inactive: -15.9%
COc1cc2c(C(=O)NCCCN3CC(C)CC(C)C3)cn(CC(C)C)c(=O)c2cc1OC (configuration not stated),"inconclusive [inhibitor, single point]",–
CC1CC(C)CN(C(=O)COC(=O)CCc2nc3ccccc3c(=O)[nH]2)C1 (configuration not stated),–,inactive: -23.1%
Nc1nc2ccccc2cc1C(=O)NCc1ccc(-c2ccccc2)cc1,active: 1.03 µM,–
COc1cc(NC(=O)NCCN2CCN(c3ccc(Cl)cc3)CC2)ccc1C,"inconclusive [inhibitor, single point]",–
CCOc1ccc(S(=O)(=O)Nc2cccc(C)c2)c2cccnc12,active: 11.6 µM,–
C[C@H](CO)N1C[C@H](C)[C@@H](CN(C)S(=O)(=O)c2ccc(F)cc2)Oc2c(NC(=O)c3ccncc3)cccc2C1=O,–,inactive: 2.26%
Cc1ccc(C2=CSC3=NS(=O)(=O)CCN23)cc1C,–,inactive: -16%
CCOC(=O)C(C)Oc1ccc(OCc2ccccc2)cc1 (configuration not stated),–,inactive: 2.98%
COc1cc(Cl)c(C)cc1NC(=O)c1ccc(CN2C(=O)CCn3nc(C)cc32)cc1,–,inactive: -13.7%
CC(=O)CSc1ncnc2sc3c(c12)CCC3,"inconclusive [inhibitor, single point]",–
Cc1cc(C)cc(OCC(=O)OCC(=O)NCc2cccs2)c1,–,inactive: -12.3%
COc1ccc2c(c1)C1NC(=S)NC(C)(O2)C1C(=O)Nc1ccc(C)cc1C (configuration not stated),–,inactive: -3.69%
COc1ccc(C(C(=O)Nc2c(C)cccc2C)n2c(=O)c(-c3ccccc3)nc3ccccc32)cc1 (configuration not stated),"inconclusive [inhibitor, single point]",–
